This is one part of the list.
T1: UNK ZnF1-3 (human, UniProt Q9C0B0 31-174)
T1 sequence: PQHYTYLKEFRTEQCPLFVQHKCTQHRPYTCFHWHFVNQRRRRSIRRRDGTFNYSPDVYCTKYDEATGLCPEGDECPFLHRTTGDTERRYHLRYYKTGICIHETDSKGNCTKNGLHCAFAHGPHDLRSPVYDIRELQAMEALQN

B1: chr2:29787112:29787113:+_ENSMUSG00000026790_ENSMUST00000113756|mus_hu|FALSE|FALSE (ssRNA)
RNA: GGGAGUUCUACAGUCCGACGAUCCCAAAUGGACACAAGCCCUCGAGGGUCUAUUGUGAAGUGCUUGGGGGCAAGUGGCCUCAAAGAAACUUGGGAGUGAGAGGUUUGCACUGAGCUUGGGAAGGGAGCCUUGGGAAAACACCACAACAGAGGAUUGAGCAUCA
B2: chr4:95690885:95690886:+_ENSMUSG00000028572_ENSMUST00000156910|mus_mus|mus_mus_mus_hu_False|38_88 (ssRNA)
RNA: GGGAGUUCUACAGUCCGACGAUCUUUAGAAAAUGUUAAAUACCAUGAGCAUGCUAAUUCAAAGGCUUAUUUUAUUUUACCAGAAGUCACAGGCAAGCAGACACCAUAAGAAUAUAUGAAAAUGAAACUCAACAAUAUAACUGUCAACAGAGGAUUGAGCAUCA
B3: chr2:216981417:216981418:+_ENSG00000079246_ENST00000392132|hu_hu|hu_hu_hu_mus_True|88_108 (ssRNA)
RNA: GGGAGUUCUACAGUCCGACGAUCCUGAUACUGAUCCUUGCCAGCAAGGGGAUUGUCAGUGCCAUCUGUGCCAUAGAGGACUAACGCAAUCUCAUCUUUGCUCUCCGAAAAUACCUGUCGUUGGACAAACAUAGUCAUCACUUUCAACAGAGGAUUGAGCAUCA
B4: 42751629_42751749_175_5pUTR_ENSG00000120925_ENST00000527424|human|control|control (ssRNA)
RNA: GGGAGUUCUACAGUCCGACGAUCUCCACCGCGAAGGAACUACCUCGCCAGUUCCCGGCGACAGAGGACAGAUUAUUUCCAGGACCGCUCCCGCCACCCCUCCCGGGCAACCCACUAGACGUCCCCUUUCUAAUUUGGAGUGCGCAACAGAGGAUUGAGCAUCA
B5: 216262523_216264051_3602_CDS_ENSG00000115414_ENST00000323926|human|control|control (ssRNA)
RNA: GGGAGUUCUACAGUCCGACGAUCAGUCACUUCUCGUGGUGCCUCUCCUCCCUGGCUUGGUCGUACACCCAGCUUAAAACCAAUUCUUGGAGCAGGCGUCCAUGUGAUCACAAUGGUGGUCUCAGUCACCUCGGUGUUGUAAGGCAACAGAGGAUUGAGCAUCA
B6: chr4:76721835:76721836:+_ENSG00000138768_ENST00000264904|hu_mus|hu_hu_hu_mus_True|78_98 (ssRNA)
RNA: GGGAGUUCUACAGUCCGACGAUCGUUUGGCUGGGGUUCUGAGAUGCCUCUGGAAUAAACUCAUGUUUUGCUAAUAAAUCCUAGUUUCUCUAUGAAAUUCUCUUUGCCAAUCCUCUUCUCUAUUAGUUGCUUUAGUUUCUCUUUCAACAGAGGAUUGAGCAUCA
B7: chr7:75932113:75932114:+_ENSG00000106211_ENST00000248553|hu_hu|hu_hu_hu_mus_False|48_108 (ssRNA)
RNA: GGGAGUUCUACAGUCCGACGAUCCUGCGACCACUCCUCGGGCAACCGGGGCACCCCGAAAGCUUGAUCGAAGAGGCGGCUGUGUGCGUACCAGUCGUCCCGGAAUGGUUCCCAGCUCGGGCUCCGCAGCAGCGAGAAGGGCACCAACAGAGGAUUGAGCAUCA
B8: chr7:151048522:151048523:+_ENSG00000013374_ENST00000566856|hu_mus|hu_hu_hu_mus_True|1_98 (ssRNA)
RNA: GGGAGUUCUACAGUCCGACGAUCCUGUUUCUUAUUUAUGACAAUUUUGAUGUAAUUUUCUUGAAAUCCGAAAGUUUCAGCUAUUUGACACCUCAGGUCUCUACCAGUGACAUGCAAGCGGGUCUCCAACAAGCUUUUCCUAUCCAACAGAGGAUUGAGCAUCA
B9: 142888011_142888131_7155_CDS_ENSMUSG00000031004_ENSMUST00000033310|mouse|control|control (ssRNA)
RNA: GGGAGUUCUACAGUCCGACGAUCCUUAUUGAGACCUGUCUUGGAAAGUCUCUUUGUGCUUGCCCGGGUUCUGACUGGUUCUGCUUGUGAAGAUUCCAAAGAUAUCUUUGCACUUUCUUCAACACUCACAGGGUUACUGGCACCCAACAGAGGAUUGAGCAUCA
B10: chr5:40767622:40767623:-_ENSG00000132356_ENST00000397128|hu_mus|hu_hu_hu_mus_False|28_108 (ssRNA)
RNA: GGGAGUUCUACAGUCCGACGAUCAUCUUUGAUUGUGGCCCUCUUCAUGGGAUCCACCUGCAGCAUAUGUUUCAAAAGGCUGAUUACUGAAGGGUUUAAGUACUGAGGGGUAUAGAAGAUCCCAUCACAUAUCUUCUUAAAAAGCAACAGAGGAUUGAGCAUCA
B11: chr4:128860887:128860888:-_ENSMUSG00000040928_ENSMUST00000106061|mus_hu|FALSE|FALSE (ssRNA)
RNA: GGGAGUUCUACAGUCCGACGAUCGAGCACAUCAUUUUGUGUGGAGCUGCUGGAGCAAUCUCUGCCUUUGCCACGAGACCAAAUGGAAAAAGGUUUCAGUUCCUGCUAGCUGUUCCUUUCAGGAGACUUGUCAAAAUGAUUGACCAACAGAGGAUUGAGCAUCA
B12: chr2:65331917:65331918:-_ENSG00000138069_ENST00000409751|hu_hu|motif|central (ssRNA)
RNA: GGGAGUUCUACAGUCCGACGAUCAUAACUGGAGGUGAUUGUUCGAAAUCUUUCCUGGCCUGCUGUGUCCCAUGCAAACCGGAGAAGAAGGCAAGACUUUCCAACCCCUGAGUCGCCAAUCAGAAGUAACUUGAAUAAAUAAUCCAACAGAGGAUUGAGCAUCA
B13: chr8:95500983:95500984:-_ENSG00000164944_ENST00000437199|hu_hu|hu_hu_hu_mus_True|28_28 (ssRNA)
RNA: GGGAGUUCUACAGUCCGACGAUCAGAACACAUCUAUCGAGUAAAGGACCGUACAUGACGGCCUCUACCACUGCCUCCACUAACAAACUUUCCUCUCGAGCCUCCACCUGCCGCUAUUGUACUAGCCCAGGACGGUCCCAGGCCCAACAGAGGAUUGAGCAUCA
B14: chr12:48362563:48362564:+_ENSG00000134291_ENST00000256686|hu_hu|hu_hu_hu_mus_False|48_58 (ssRNA)
RNA: GGGAGUUCUACAGUCCGACGAUCUCCGUCAAGCCCUUCGAUAGACCCUUGCGGGGGAAACUGUAAUCACUUUGUAUUUCUAAAAAAAAAAAAAGCCAAAAACUUUCCAAAAAGCGGGGGUGGGGUGAGGCGGGAGGGGGAGGUCAACAGAGGAUUGAGCAUCA
B15: chr2:47387770:47387771:-_ENSG00000143933_ENST00000272298|hu_mus|hu_hu_hu_mus_True|28_108 (ssRNA)
RNA: GGGAGUUCUACAGUCCGACGAUCAAGGUUUUAGGACAAUGACAGUAAGAUAAGGGAAGAAAACAUGGAGGAAUGAAGUCCUAAUUACUAUACAUGCAUAUUUUUUGGACAGUAGGGGGGGGAACCUUUUACAGAUAAGUUACACAACAGAGGAUUGAGCAUCA
B16: chr1:82408827:82408828:+_ENSG00000117114_ENST00000319517|hu_hu|motif|central (ssRNA)
RNA: GGGAGUUCUACAGUCCGACGAUCAUCUACUCGAUUUGGAAGUUUAUAUGUUGUUGUUUGGCGACUAUUUUGGAAAUCUUCGGAAGAAGCAUAUUCUAUUAAAGUAUCGGUACGAUAGGGAGUCCAGGGCAUGAAAUAAAUUUUCAACAGAGGAUUGAGCAUCA
B17: chr18:74380996:74380997:+_ENSMUSG00000024560_ENSMUST00000025444|mus_mus|motif|central (ssRNA)
RNA: GGGAGUUCUACAGUCCGACGAUCGCAGAGACCCUUUGAUAAGGGCAAACGGAAGCCAAAACGUGGAUGGUGAGGAUCAAACGGAGGGCAGCAGAAGAAACAGAUGAAUGGAGGAACGGACAGCUGGCAAUGCAGGGCCUCUCCCAACAGAGGAUUGAGCAUCA
B18: chr14:94519448:94519449:-_ENSG00000089737_ENST00000330836|hu_hu|FALSE|FALSE (ssRNA)
RNA: GGGAGUUCUACAGUCCGACGAUCAGAGUUGUGCAGGCAAGCCUGGAAGUUCCGAUACUCAGAUUUCUCAAUCUGUCGAGCUAAACGGAUUCGCUCCUUGACCACAUCCAUGUAUUUUGUCUGCACGGGGAACAGUGGGAUAUCCAACAGAGGAUUGAGCAUCA
B19: chr2:225400320:225400321:-_ENSG00000036257_ENST00000409096|hu_mus|motif|central (ssRNA)
RNA: GGGAGUUCUACAGUCCGACGAUCAUUUUCUACAUUAUUCUGUUGUACAUAUACACGGUCCAUAUACAUUAAUAUGUCUCGGAUCAUCACCAUGGCUGUUUGAUGAUCAUUCCAAGCUUGAUUUAGUGUUUGAAGAAAGUUGUUCAACAGAGGAUUGAGCAUCA
B20: chr3:8561242:8561243:+_ENSMUSG00000027500_ENSMUST00000029002|mus_mus|FALSE|FALSE (ssRNA)
RNA: GGGAGUUCUACAGUCCGACGAUCAGCAACCAGCUCACAGUCUCCAAGUGGAAAAACGUUCAGUAGCAUUAUGUGCUUGUACUACAGGCAAAAGCUUAAAAUGAACAUCAUCACCCAUGGCACCCACAGAUAAGCCACCCGACACAACAGAGGAUUGAGCAUCA
B21: chr11:30000241:30000242:-_ENSMUSG00000020315_ENSMUST00000011877|mus_mus|FALSE|FALSE (ssRNA)
RNA: GGGAGUUCUACAGUCCGACGAUCUAUUUCCAACACAGCCUCACAAAAUUGAGGAACAGUUUAAAUACUGAGAUCUAAUCUAUAUAAUUUCAUUAAAAAAAUCUGGCCUUCCCUCUGUACCUCAAACUUUUUAAACUUGGAGAUCAACAGAGGAUUGAGCAUCA
B22: chrX:71549400:71549401:+_ENSMUSG00000019087_ENSMUST00000019231|mus_hu|mus_mus_mus_hu_False|8_48 (ssRNA)
RNA: GGGAGUUCUACAGUCCGACGAUCGCAGUAGGAAGAGGGAAGCUCUUCAGUCCAGUGCGCUGCAGGGUGGGAAAGCAACAACACGGAACCAAUACUCCCCUCAACCCCCCCACUGGCACAGGGUCACAUCUGGGUCAUCAAAGACAACAGAGGAUUGAGCAUCA

The binders below were run against T1, UNK ZnF1-3 (assay: nsRBNS (natural sequence RNA bind-n-seq); RBNS binding buffer (assumed for nsRBNS): 25 mM Tris pH 7.5, 150 mM KCl, 3 mM MgCl2, 0.01% Triton X-100, 500 ug/ml BSA, 20 U/ml SUPERase-In, 4 C; UNK is unkempt and MSI1 is Musashi-1; names of the RNAs are library labels; protein concentration not given here; high values mean tight binding).

| Binder | binding signal |
| --- | --- |
| B1 | 2.06 enrichment R |
| B2 | 2.38 enrichment R |
| B3 | 1.11 enrichment R |
| B4 | 1.33 enrichment R |
| B5 | 0.919 enrichment R |
| B6 | 0.482 enrichment R |
| B7 | 0.664 enrichment R |
| B8 | 0.863 enrichment R |
| B9 | 0.546 enrichment R |
| B10 | 0.978 enrichment R |
| B11 | 1.4 enrichment R |
| B12 | 1.24 enrichment R |
| B13 | 1.08 enrichment R |
| B14 | 2.29 enrichment R |
| B15 | 1.71 enrichment R |
| B16 | 1.52 enrichment R |
| B17 | 1.97 enrichment R |
| B18 | 0.512 enrichment R |
| B19 | 0.493 enrichment R |
| B20 | 1.44 enrichment R |
| B21 | 2.65 enrichment R |
| B22 | 1.33 enrichment R |
